The whole screen tested about 310,000 compounds, of which about 14,000 (4.5%) showed an effect of 50% or more. The effect is printed as a negative number. Some of the results follow.
biological target: human ether-à-go-go-related gene (hERG) potassium channel (human, UniProt Q12809); assay: primary screen, population patch clamp on CHO cells stably expressing hERG
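Further: peak tail current of the secondary pulse compared with the same well before compound.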

Chain of human ether-à-go-go-related gene (hERG) potassium channel (Q12809 whole entry, looked up): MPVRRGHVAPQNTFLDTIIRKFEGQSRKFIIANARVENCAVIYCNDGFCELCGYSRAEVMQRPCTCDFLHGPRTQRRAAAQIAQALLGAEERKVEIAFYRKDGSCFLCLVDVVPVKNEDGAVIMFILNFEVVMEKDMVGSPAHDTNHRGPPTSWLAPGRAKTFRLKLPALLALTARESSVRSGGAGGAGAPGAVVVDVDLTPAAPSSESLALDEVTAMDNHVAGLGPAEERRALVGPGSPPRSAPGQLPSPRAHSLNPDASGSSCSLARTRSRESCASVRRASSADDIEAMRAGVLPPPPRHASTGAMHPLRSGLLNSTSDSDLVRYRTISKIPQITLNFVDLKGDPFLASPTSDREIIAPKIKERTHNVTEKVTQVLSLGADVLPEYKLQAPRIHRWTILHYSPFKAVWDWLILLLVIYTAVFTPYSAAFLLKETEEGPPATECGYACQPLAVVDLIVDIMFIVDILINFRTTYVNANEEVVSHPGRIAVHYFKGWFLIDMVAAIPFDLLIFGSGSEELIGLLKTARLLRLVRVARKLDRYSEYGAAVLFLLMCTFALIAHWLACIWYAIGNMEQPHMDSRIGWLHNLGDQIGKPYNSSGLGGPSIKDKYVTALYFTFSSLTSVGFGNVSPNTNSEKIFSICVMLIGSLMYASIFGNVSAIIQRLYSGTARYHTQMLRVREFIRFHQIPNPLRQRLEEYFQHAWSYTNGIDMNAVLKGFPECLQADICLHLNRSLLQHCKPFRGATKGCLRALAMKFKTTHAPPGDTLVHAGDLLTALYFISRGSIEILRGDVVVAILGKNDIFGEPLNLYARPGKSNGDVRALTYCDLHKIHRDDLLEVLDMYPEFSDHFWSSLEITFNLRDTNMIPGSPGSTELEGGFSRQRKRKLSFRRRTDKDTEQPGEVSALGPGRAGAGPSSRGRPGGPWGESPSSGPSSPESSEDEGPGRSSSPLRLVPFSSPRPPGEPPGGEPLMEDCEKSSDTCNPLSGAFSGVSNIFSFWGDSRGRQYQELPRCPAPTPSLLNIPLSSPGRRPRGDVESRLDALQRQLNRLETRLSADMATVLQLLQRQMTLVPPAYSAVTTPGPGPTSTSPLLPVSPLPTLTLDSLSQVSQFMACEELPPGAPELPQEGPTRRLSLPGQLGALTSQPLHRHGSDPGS

SMILES | hERG current change (%, negative = inhibition) at 10uM
CC(=O)c1ccc(NC(=O)c2sc3nc(C)c(C)c(C)c3c2N)cc1 | 19.3%
Cl.O=C(NCCN1CCN(c2ccccc2)CC1)c1ccccc1F | -11%
O=C(O)C(=O)O.O=[N+]([O-])c1ccc(S(=O)(=O)N(CCCN2CCOCC2)Cc2cccs2)cc1 | -70.6%
COc1cc(-c2nc(Cc3ccccc3Cl)no2)cc(OC)c1OC | -12%
Cc1cc(C)cc(C(=O)NCC(=O)N2CCC3(CC2)NCCc2[nH]cnc23)c1 | 11.9%
CN(Cc1cccs1)C(=O)CNC(=O)c1ccco1 | 22%
Cc1ccc(N2C(=O)CC(=O)NC2=O)c(C)c1 | 17.2%
Cn1c(SCc2ccccc2F)nc2ccccc2c1=O | -6.1%
CCC(C)(C)n1nnnc1C(C(C)C)N(CCCO)Cc1cc2cc(C)ccc2[nH]c1=O (centres unmarked) | -20.9%
CCc1ccc2oc(=O)cc(CN(C)Cc3ccccc3)c2c1 | -13.5%
Cc1cc(OCC(=O)N2CCC(C(=O)O)CC2)c2c(C)cc(=O)oc2c1 | 2.76%
COc1cc(/C=C(\C#N)c2ccccn2)ccc1OCc1ccccc1Cl | -21.1%
CSc1nc2ccc(Nc3nc(N4CCOCC4)nc(N4CCOCC4)n3)cc2s1 | -35%
CC(C)C[C@H](NC(=O)c1nc[nH]c1C(=O)N(C)Cc1ccccc1)C(=O)OC(C)(C)C | -15.4%
CN(C)c1ccc(/C=N/NC(=O)c2ccc3c(c2)OCCO3)cc1 | 9.93%
COc1ccc(C(=O)Nc2cccc(S(C)(=O)=O)c2)cc1 | -5.19%
CNC(=O)c1ccccc1NC(=O)C1CC(=O)N(c2ccc(OC)cc2)C1 (centres unmarked) | -12.3%
COC(=O)c1cccc(Nc2nc3ccccc3nc2C)c1 | 9.59%
Cc1cccc2cc(CN(CC3CCCO3)C(=O)c3ccco3)c(=O)[nH]c12 (centres unmarked) | -12.6%
COc1ccc(OC)c(NC(=O)c2ccc(OCC(=O)N3CCOCC3)c(OC)c2)c1 | 1.58%
O=C(NCCc1c[nH]c2ccccc12)c1cccc(Br)c1 | 0.989%
COc1ccc(S(=O)(=O)n2c([N+](=O)[O-])cnc2C)c(C)c1C | 15.4%

SMILES | hERG current change (%, negative = inhibition) at 10uM
CCN(CC)c1ccc(-c2nnc(SCC(=O)Nc3ccccc3C#N)n2-c2ccccc2)cc1 | -8.06%
Cc1ccnc(-n2c(C)cc(/C=C3\C(=O)NC(=S)N(C)C3=O)c2C)c1 | 12.9%
O=C(CC(C(=O)O)N1CCOCC1)Nc1ccc(Cl)cc1 (centres unmarked) | -10.1%
COCCOC(=O)c1ccc(NC(=O)COc2ccc([N+](=O)[O-])cc2)cc1 | -16.7%
COc1ccc(CCNC(=O)c2ccc(Cl)cc2)cc1OC | 20.2%
CCC(C)N(C(=O)COC(=O)CSc1ccc(C)c(C)c1)C1CCS(=O)(=O)C1 (centres unmarked) | -18.9%
N#C/C(=C(/O)c1ccc([N+](=O)[O-])cc1)c1nc2ccccc2[nH]1 | 18.9%
COc1ccc(/C=N/NC(=O)c2cccc(NC(=O)c3ccc(Cl)cc3)c2)c(OC)c1 | -11.6%
CC(=O)c1nn(-c2cccc(Br)c2)cc1C(=O)c1ccc(C)cc1 | 6.63%
CCCCS(=O)(=O)N1CCCC(C(=O)Nc2ccc3c(c2)CCC3)C1 (centres unmarked) | 2.63%
CCC1(c2ccccc2)NC(=O)N(CC(=O)Nc2ccc(Cl)c(S(=O)(=O)N3CCCCC3)c2)C1=O (centres unmarked) | 12.4%
C=C(Cl)COC(=O)C1C2C=CC(C2)C1C(=O)O (centres unmarked) | 5.03%
COc1cccc(NC2c3ccccc3C(=O)N2Cc2ccco2)c1 (centres unmarked) | -17%
Cc1ccccc1NC(=S)NCc1ccc2[nH]c3c(c2c1)CCCC3 | -5.47%
S=c1[nH]nc(-c2ccncc2)n1/N=C/c1cn(-c2ccccc2)nc1-c1ccc(Cl)cc1 | -2.04%
O=C(CN1C(=O)c2ccccc2S1(=O)=O)NCCSc1ccccc1 | -9.55%
Cn1cnnc1Sc1ccc(C(=O)OCC(=O)Nc2cc(Cl)cc(Cl)c2)cc1[N+](=O)[O-] | -8.26%
Cc1cccc(NNC(=O)C(=O)NNc2cccc(C)c2)c1 | 14%
O=C(COC(=O)c1ccc(S(=O)(=O)N2CCCC2)cc1)NCc1ccc(Cl)cc1 | -6.29%
COc1ccc(CNC(=O)CN2C(=O)COc3ccc(S(=O)(=O)NC4CCCC4)cc32)cc1 | -0.778%
CCOC(=O)c1oc2c(c1C)C(=O)CCC2 | 15.6%
COc1ccc(CC(=O)NNC2=Nc3cccc4cccc2c34)cc1 | 17.8%

SMILES | hERG current change (%, negative = inhibition) at 10uM
CCCOc1ccc(C2C(C(=O)c3cc4ccccc4o3)=C(O)C(=O)N2c2cc(C)on2)cc1 (centres unmarked) | 20%
COc1ccc(CN(CC(=O)NCCc2ccccc2)C(=O)CCC(=O)Nc2ccccn2)cc1 | -27.1%
Cc1cc(-c2ccccc2)nc(N/N=C/c2ccc([N+](=O)[O-])cc2)n1 | -15.9%
O=C(Nc1ccc(F)c(Cl)c1)C1CC2CCC1C2 (centres unmarked) | 3.18%
CSc1nc2c(c(=O)[nH]c(=O)n2C)n1CCCc1ccccc1 | 3.11%
CSCc1c(C(=O)Nc2ccc3c(c2)OCO3)oc2ccccc12 | 18.5%
Clc1ccc(-n2nnnc2-c2cnc(-c3ccccn3)nc2-c2cccs2)cc1 | -26.1%
CCOC(=O)c1c(NC(=O)C(C)N2CCN(C(=O)c3ccco3)CC2)sc2c1CCCC2 (centres unmarked) | -56.1%
COc1ccc(S(=O)(=O)N2CCOC2CNC(=O)C(=O)NCc2ccc3c(c2)OCO3)cc1 (centres unmarked) | -25.6%
O=C(COc1ccc(CO)cc1)Nc1ccc(F)cc1 | 0.156%
COc1ccc(-c2csc(NC3OC(=O)c4ccccc43)n2)cc1 (centres unmarked) | 4.05%
CCN1C(=O)[C@H]2[C@@H](c3ccc(C)cc3)N3C(=O)N(c4cccc(F)c4)C(=O)[C@@]3(CC)[C@H]2C1=O | -4.65%
Cc1cc(C)nc(SCC(=O)Nc2ccc(S(=O)(=O)NCCO)cc2)n1 | -7.43%
O=C(Nc1ccc2c(c1)OCCO2)c1cccnc1 | 8.72%
CC(NC(=O)C(Cc1ccccc1)NC(=O)c1ccccc1)C(=O)O (centres unmarked) | 24%
Cc1ccc(/C=C/C(=O)Nc2nnc(SCc3ccc(C#N)cc3)s2)o1 | -11%
C#Cc1ccc([C@H]2C=C(C(=O)OCC=C)O[C@@H](OCc3ccc(CO)cc3)C2)cc1 | -2.79%
Cc1nn(CCCC(=O)NC2CCC(C)CC2)c(=O)c2nn(-c3ccccc3)c(C)c12 (centres unmarked) | -5.97%
O=C(O)c1ccccc1NCc1ccsc1 | 9.52%
CC(=O)Nc1sc(C)c(C)c1C(=O)OCC(=O)N(CC(C)C)c1c(N)n(Cc2ccccc2)c(=O)[nH]c1=O | -1.37%
CC(=O)Nc1ccc(S(=O)(=O)Nc2nc3cc4c(cc3nc2Cl)OCCO4)cc1 | 8.04%
OCCC1CN(Cc2cccc(-n3cccn3)c2)CCN1Cc1ccccc1 (centres unmarked) | -44.8%

SMILES | hERG current change (%, negative = inhibition) at 10uM
O=C(c1cccc(Cl)c1)C1CCCN(Cc2ccc(N3CCNC3=O)cc2)C1 (centres unmarked) | -43.7%
Cc1ccc([N+](=O)[O-])cc1N=C(c1cccc(Br)c1)N1CCOCC1 | 0.726%
COc1ccccc1CC(=O)N1CCCC1 | 8.49%
Cc1cc(/C=C2/NC(=O)N(Cc3ccccc3F)C2=O)c(C)n1-c1ccccn1 | 9.38%
CCCn1c(SCC(=O)Nc2sc(C)c(C)c2C(=O)OCC)nc2c1c(=O)n(C)c(=O)n2C | 0.59%
CCCc1nc2ccccc2n1CC(O)COc1ccc(NC(C)=O)cc1 (centres unmarked) | 16.1%
COc1ccc(NC(=S)NC(=O)c2cccnc2)cc1 | 16.6%
CC(=O)OC(C(=O)NC1CCCCC1)c1ccccc1F (centres unmarked) | 16.4%
COCCn1c(=O)[nH]c2cc(C(=O)Nc3cccc(C(C)=O)c3)ccc2c1=O | -19.8%
CC1(c2ccccc2)NC(=O)N(CC(=O)NNC(=O)c2cccc(Cl)c2)C1=O (centres unmarked) | -3.79%
Cl.Cn1nnnc1SCCNCc1ccccc1OCc1ccc(Cl)cc1 | -53.4%
O=C(CCCCC(=O)Nc1ccc(F)cc1F)Nc1ccc(F)cc1F | 4.85%
CCC(=O)Nc1ccc(-c2ccc(N3CCC(C)CC3)nn2)cc1 | 6.62%
Nc1ccccc1S(N)(=O)=O | 14.9%
CCc1ccc(N2C(=O)Nc3ccc(Br)cc3C2(O)C(=O)NCCN(C)C)cc1 (centres unmarked) | 6.98%
CC(C)n1c(/N=C/c2c[nH]c3ccccc23)nc2ccccc21 | -1.7%
CC(C)CNS(=O)(=O)c1ccc(S(=O)(=O)N2CCN(CCC#N)CC2)cc1 | 6.93%
NC(=S)Cc1nc(-c2ccc(Cl)cc2)cs1 | -1.32%
COCCCNC(=S)N1CCN(C(c2ccccc2)c2ccccc2)CC1 | 5.04%
CCOC(=O)c1ccc(NC(=O)CCCN2C(=O)NC3(CCCC3)C2=O)cc1 | -3.62%

Source: PMC4336329 (PLoS ONE, 2015)
